Laboratory results: PubChem BioAssay AID588795 (National Center for Advancing Translational Sciences (NCATS), 2011)
Values joined by “and” are separate entries in the source; they are usually repeats but may differ in a detail not shown here. Equal values may be shown once. Screen size: about 390,000 compounds; about 1,400 (0.36%) were called active. Inconclusive results, whose numbers are uncertain, are shown with a selection of clear calls. Calls come from the whole dose curve; as a rule, active = well fitted inhibition curve with a large enough effect; inconclusive = small, poorly fitted or top-dose-only effect; inactive = no such curve, though single readings can be large or run the other way. Potencies beside an inconclusive call are fits to weak or partial responses and may not hold up.

molecular target: Flap endonuclease 1 (Homo sapiens) (UniProt P39748); test: qHTS Assay for the Inhibitors of Human Flap endonuclease 1 (FEN1).; note: nearly all actives have a fitted effect of over 65% in size; settings: Recombinant FEN1 flap cleavage, fluorescence, 15 min; series mostly up to 114 µM; activity change, negative = inhibition: at the top concentration
UniProt P39748, sequence (P39748 whole entry, looked up): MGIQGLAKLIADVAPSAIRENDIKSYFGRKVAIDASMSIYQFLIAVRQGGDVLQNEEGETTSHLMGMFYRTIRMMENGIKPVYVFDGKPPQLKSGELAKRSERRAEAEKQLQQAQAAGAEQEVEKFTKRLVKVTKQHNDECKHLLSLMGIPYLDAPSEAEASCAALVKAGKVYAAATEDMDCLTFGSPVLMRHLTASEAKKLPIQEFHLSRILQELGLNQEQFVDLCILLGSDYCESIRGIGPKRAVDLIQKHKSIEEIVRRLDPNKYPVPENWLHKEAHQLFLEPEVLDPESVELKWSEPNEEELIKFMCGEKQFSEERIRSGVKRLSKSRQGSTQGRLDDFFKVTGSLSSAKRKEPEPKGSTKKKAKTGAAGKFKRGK
How it was run: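 Read-out was taken twice, immediately and after 15 min, following addition of 50 nM substrate to 10 nM FEN1 that had sat with test compound for 15 min at room temperature. Curves came from a four-parameter Hill model.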
% is set by controls: 0 for no effect and ±100 for the full control effect; potency is the fitted concentration of half-maximal effect; tags give direction and shape of the fitted curve.

Question: For `O=C(N/N=C/c1cccn1-c1ccc([N+](=O)[O-])cc1)c1cccnc1`, which Potency is on record?
Answer: inconclusive: 50.1 µM [inhibitor, partial curve, poor fit]

Question: For `O=C(O)CC/C(=C\c1ccc(N2CCCC2)c([N+](=O)[O-])c1)c1nc2ccccc2s1`, which Potency is on record?
Answer: inconclusive: 79.4 µM [inhibitor, single point]

Question: Which Potency does the source give for `CC(C)C1OC2c3cccc4cccc(c34)C2N1c1ccccc1` (stereo not given) here?
Answer: inconclusive: 89.1 µM [inhibitor, partial curve, poor fit]

Question: With `Oc1c(Cl)cc(Cl)c(Cl)c1Cc1c(O)c(Cl)cc(Cl)c1Cl` as the compound, how does the Potency read?
Answer: inconclusive: 56.2 µM [inhibitor, partial curve, poor fit]

Question: With `O=C(c1ccc2c(=O)n(Cc3ccco3)c(=S)[nH]c2c1)N1CCN(Cc2ccc3c(c2)OCO3)CC1` as the compound, how does the Potency read?
Answer: inconclusive: 89.1 µM [inhibitor, single point]

Question: With `COc1cccc(-n2c(C)c3c(OC)cccc(=O)c3c2C)c1` as the compound, how does the “activity change, negative = inhibition” value read?
Answer: inactive: -11.4%

Question: How did the Potency turn out when `COc1cc(OC)c2c(O)c3c(c(-c4c5c(c(O)c6c(OC)cc(OC)cc46)CO[C@@H](C)[C@H]5O)c2c1)[C@H](O)[C@H](C)OC3` was run?
Answer: inconclusive: 56.2 µM [inhibitor, partial curve, poor fit]

Question: Which “activity change, negative = inhibition” value does the source give for `Cc1ccccc1Cc1c(C)nc2nc(SCC(=O)NCCc3ccc(Cl)cc3)nn2c1C` here?
Answer: inactive: 3.88%

Question: With `CSc1ccc(S(=O)(=O)NCC(=O)OCC(=O)N2CCCC2=O)cc1[N+](=O)[O-]` as the compound, how does the “activity change, negative = inhibition” value read?
Answer: inactive: -2.74%

Question: `CCO[C@H]1OC(C(=O)N2CCN(Cc3ccc4c(c3)OCO4)CC2)=C[C@@H](c2csc3ccccc23)[C@@H]1CCCO` was tested. Which “activity change, negative = inhibition” value did it give?
Answer: inactive: -26.5%

Question: With `NCCCC[C@H]1CN=C(N)N1CCc1cccc2ccccc12` as the compound, how does the “activity change, negative = inhibition” value read?
Answer: inactive: 1.34%

Question: With `CC1=C/C(=C(/c2cc(C)c(O)c(Br)c2)c2ccccc2S(=O)(=O)O)C=C(Br)C1=O` as the compound, how does the Potency read?
Answer: inconclusive: 39.8 µM [inhibitor, partial curve, poor fit]

Question: With `COc1ccc(CNC(=O)CCNS(=O)(=O)c2cc(Br)cnc2N)cc1` as the compound, how does the Potency read?
Answer: inconclusive: 89.1 µM [inhibitor, single point]

Question: How did the Potency turn out when `COc1cc(OC)c(-c2nn3c(C4CCCCC4)nnc3s2)cc1OC` was run?
Answer: inconclusive: 70.8 µM [inhibitor, partial curve, poor fit]

Question: For `Cc1ccccc1/C=N/n1c(-c2ccccn2)n[nH]c1=S`, which “activity change, negative = inhibition” value is on record?
Answer: inactive: -8.05%

Question: Which Potency does the source give for `CN(C)CCNc1cc(-c2ccncc2)nc2ccccc12` here?
Answer: inconclusive: 89.1 µM [inhibitor, single point]

Question: How did the Potency turn out when `Cc1cccc(N(CC(=O)NCCSc2ccc(Cl)cc2)S(C)(=O)=O)c1C` was run?
Answer: inconclusive: 89.1 µM [inhibitor, partial curve, poor fit]

Question: For `COc1ccc(CN2C(=O)[C@H]3Cc4c([nH]c5ccccc45)C(C)(C)N3C2=O)cc1`, which Potency is on record?
Answer: inconclusive: 50.1 µM [inhibitor, partial curve, poor fit]

Question: With `COc1cc2nc(Nc3ccc(C)c(C)c3)nc(N)c2cc1OC` as the compound, how does the Potency read?
Answer: inactive and inconclusive: 39.8 µM [inhibitor, partial curve]

Question: Which “activity change, negative = inhibition” value does the source give for `CCOc1ccc(S(=O)(=O)N(CC(=O)N/N=C/c2ccc(-c3ccc([N+](=O)[O-])cc3)o2)c2ccccc2)cc1` here?
Answer: inactive: -18.9%

Question: How did the Potency turn out when `Cc1c(CCC(=O)NCC(=O)O)c(=O)oc2cc3occ(-c4ccccc4)c3cc12` was run?
Answer: inconclusive: 35.5 µM [inhibitor, partial curve, poor fit]

Question: How did the Potency turn out when `CCc1ccc2nc3sc(C(=O)Nc4nnc(CC)s4)c(N)c3cc2c1` was run?
Answer: active: 44.7 µM

Question: With `COc1ccc(CNC(=O)Cn2c(=O)n3nc(-c4cccc(F)c4)nc3c3ccccc32)cc1OC` as the compound, how does the “activity change, negative = inhibition” value read?
Answer: inactive: -5.22%

Question: With `COc1ccc(-c2nn(-c3ccccc3)cc2/C=C2/SC(=S)N(CCC(=O)O)C2=O)cc1` as the compound, how does the Potency read?
Answer: active: 79.4 µM

Question: How did the Potency turn out when `CN(Cc1ccccc1)c1nc2c(c(=O)[nH]c(=O)n2C)n1CCCc1ccccc1` was run?
Answer: inconclusive: 79.4 µM [inhibitor, partial curve, poor fit]

Question: Which Potency does the source give for `COc1cc2c(NC3CCN(C)CC3)nc(N3CCN(C)CC3)nc2cc1OCCOCCN(C)C` here?
Answer: inconclusive: 39.8 µM [inhibitor, full curve, poor fit]

Question: With `O=C(O)CN1C(=O)/C(=C\c2cn(-c3ccccc3)nc2-c2ccccc2)SC1=S` as the compound, how does the Potency read?
Answer: inconclusive: 56.2 µM [inhibitor, partial curve, poor fit]

Question: How did the Potency turn out when `CC(=O)CC(c1ccccc1)c1c(O)c2ccccc2oc1=O` (stereo not given) was run?
Answer: inactive

Question: With `CC1=C/C(=C(\c2cc(C)c(O)c(Br)c2)c2ccccc2S(=O)(=O)O)C=C(Br)C1=O` as the compound, how does the Potency read?
Answer: inconclusive: 44.7 µM [inhibitor, partial curve]

Question: For `Cc1ccc(-n2c(-c3cccc(C)c3)nc3c(cnn3-c3ccccc3)c2=O)cc1`, which Potency is on record?
Answer: inconclusive: 22.4 µM [inhibitor, partial curve, poor fit]

Question: For `COc1ccc(-c2nc(CSc3nnc(C)n4c3cc3sccc34)c(C)o2)cc1`, which “activity change, negative = inhibition” value is on record?
Answer: inactive: 8.15%

Question: Which “activity change, negative = inhibition” value does the source give for `CN(C)c1nc(-c2ccccn2)nnc1-c1ccccc1` here?
Answer: inactive: 1.93%

Question: How did the Potency turn out when `COc1cc(/C=C2\SC(=S)N(NC(=O)c3ccc(O)cc3)C2=O)ccc1O` was run?
Answer: inconclusive: 50.1 µM [inhibitor, partial curve]

Question: `C(=Cc1c[nH]c2ccccc12)c1ccc2ccccc2n1` was tested. Which Potency did it give?
Answer: inconclusive: 70.8 µM [inhibitor, partial curve, poor fit]

Question: How did the Potency turn out when `Cc1cc(OCCCSc2nc(-c3ccc(C(C)(C)C)cc3)nc3cc(=O)[nH]n23)ccc1Cl` was run?
Answer: inconclusive: 44.7 µM [inhibitor, partial curve, poor fit]

Question: How did the Potency turn out when `O=C(CN1C(=O)C(c2ccc(F)cc2)=NC12CCCCCC2)Nc1ccc(F)c(Cl)c1` was run?
Answer: inconclusive: 79.4 µM [inhibitor, partial curve]

Question: How did the “activity change, negative = inhibition” value turn out when `COc1ccc(-c2cc(C(=O)Nc3c(Cl)cccc3Cl)no2)cc1OC` was run?
Answer: inactive: 3.25%

Question: For `COc1ccc(C(=O)Nc2ccc(-n3nncc3-c3ccc(OC)c(OC)c3)cc2)cc1`, which “activity change, negative = inhibition” value is on record?
Answer: inactive: -11.1%

Question: Which Potency does the source give for `COc1ccc(Cl)cc1NC(=O)CN(c1cc(C)cc(C)c1)S(=O)(=O)c1c(C)n[nH]c1C` here?
Answer: inconclusive: 89.1 µM [inhibitor, single point]

Question: Which “activity change, negative = inhibition” value does the source give for `CCOC(=O)Cc1cc(=O)c2c(=O)n(-c3ccccc3)[nH]c2[nH]1` here?
Answer: inactive: -2.86%
